# Measurements taken from patent US20060275295A1 (published 2006).
# T1: human THAP1 (THanatos-Associated Protein-1), full length (human, UniProt Q9NVV9 1-213)
# T1 construct: Used as Gal4-BD (pGBKT7) or Gal4-AD (pGADT7, pGAD424) fusion in yeast two-hybrid and as 35S-labelled in vitro translated protein (template pGBKT7-THAP1); also called hTHAP1; THAP1 wild type
# T1 sequence: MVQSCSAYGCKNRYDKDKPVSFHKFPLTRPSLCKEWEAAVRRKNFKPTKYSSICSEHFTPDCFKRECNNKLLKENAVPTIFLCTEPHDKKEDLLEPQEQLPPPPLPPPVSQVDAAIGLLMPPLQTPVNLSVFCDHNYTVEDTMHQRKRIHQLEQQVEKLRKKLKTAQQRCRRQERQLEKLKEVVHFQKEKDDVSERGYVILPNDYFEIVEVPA
# B1: human chemokine CXCL10, mature form ([…]) (ligand)
# chain: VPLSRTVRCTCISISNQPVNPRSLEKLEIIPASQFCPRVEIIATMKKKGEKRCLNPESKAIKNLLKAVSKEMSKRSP
# notes: Gal4-BD fusion (pGBKT7) in yeast or in vitro translated from pGBKT7-CXCL10; tags not built in; also called IP10/CXCL10; IP10
# Biological target: T1, human THAP1 (THanatos-Associated …)
# Test: yeast two-hybrid, AH109, His/Ade selection
# From the text: 285) and CXCL10-2 (5′-[…]-3′) (SEQ ID NO. 286), No. 2403734 (IFNγ) with primers IFN-1 (5′-[…]-3′) (SEQ ID NO: 287) and IFN-2 (5′-[…]-3′) (SEQ ID NO: 288). The PCR products were digested with EcoRI and BamHI, and cloned between EcoRI and BamHI cloning sites of vector pGBKT7 (Clontech).
binder,measurement,value
B1,binding result,binds
